Molecules are shown by their SMILES. Hit rate of the full screen: of about 310,000 compounds, about 2,200 (0.71%) showed an effect of 50% or more. Effects have a minus sign here. The list shows a part of the results.

Chain of human ether-à-go-go-related gene (hERG) potassium channel (Q12809 whole entry, looked up): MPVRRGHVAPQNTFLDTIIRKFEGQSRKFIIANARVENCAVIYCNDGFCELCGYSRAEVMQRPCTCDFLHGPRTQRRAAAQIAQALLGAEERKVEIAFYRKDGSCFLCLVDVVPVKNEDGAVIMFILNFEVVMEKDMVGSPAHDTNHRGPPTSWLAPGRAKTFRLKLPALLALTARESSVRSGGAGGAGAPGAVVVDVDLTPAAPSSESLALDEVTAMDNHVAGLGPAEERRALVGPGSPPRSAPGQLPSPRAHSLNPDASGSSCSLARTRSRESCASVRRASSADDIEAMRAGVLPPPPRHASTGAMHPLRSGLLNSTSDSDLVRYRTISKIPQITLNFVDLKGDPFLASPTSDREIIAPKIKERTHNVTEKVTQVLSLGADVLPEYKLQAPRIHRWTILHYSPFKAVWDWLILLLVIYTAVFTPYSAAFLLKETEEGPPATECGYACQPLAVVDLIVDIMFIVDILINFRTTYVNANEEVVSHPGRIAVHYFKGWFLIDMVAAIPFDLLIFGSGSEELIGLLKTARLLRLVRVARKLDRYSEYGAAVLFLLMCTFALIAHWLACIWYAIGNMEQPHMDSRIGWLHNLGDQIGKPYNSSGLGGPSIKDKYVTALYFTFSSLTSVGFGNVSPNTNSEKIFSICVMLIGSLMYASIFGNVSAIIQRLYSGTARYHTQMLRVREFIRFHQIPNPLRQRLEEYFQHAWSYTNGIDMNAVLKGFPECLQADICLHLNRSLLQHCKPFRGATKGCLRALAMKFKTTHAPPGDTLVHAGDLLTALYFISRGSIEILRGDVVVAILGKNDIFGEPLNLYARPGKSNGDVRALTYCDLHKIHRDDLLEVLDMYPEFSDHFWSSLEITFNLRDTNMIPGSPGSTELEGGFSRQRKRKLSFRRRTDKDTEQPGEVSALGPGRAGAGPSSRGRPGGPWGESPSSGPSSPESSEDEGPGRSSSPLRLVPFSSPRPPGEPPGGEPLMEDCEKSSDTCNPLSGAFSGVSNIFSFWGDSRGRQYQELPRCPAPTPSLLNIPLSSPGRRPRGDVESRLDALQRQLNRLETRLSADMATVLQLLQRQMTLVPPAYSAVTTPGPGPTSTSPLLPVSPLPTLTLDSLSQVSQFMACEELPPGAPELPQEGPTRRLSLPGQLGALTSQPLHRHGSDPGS

This assay addresses human ether-à-go-go-related gene (hERG) potassium channel (human, UniProt Q12809). Nature of the assay: primary screen, population patch clamp on CHO cells stably expressing hERG.
With `CCc1ccc(NC(=O)CN2C(=O)CC(C)S(=O)(=O)c3ccccc32)cc1` (stereo not shown), the “hERG current change (%, negative = inhibition) at 1uM” value is 7.99%. Under `NNC(=O)c1ncoc1-c1ccc(Cl)cc1` stands 11.9%; under `CC1CCN(C(=O)CCCN2C(=O)c3cccnc3Oc3ccc(Cl)cc32)CC1`, 0.182%. Turning to `O=C(Cn1nnc(-c2cc(Cl)ccc2-n2cnnn2)n1)N1CCCc2ccccc21`, the “hERG current change (%, negative = inhibition) at 1uM” value was -14.9%. For `COc1ccc(CCNC(=O)C2CCN(C(=O)c3ccc(Br)cc3)CC2)cc1OC`, the “hERG current change (%, negative = inhibition) at 1uM” value is listed as 12.5%. In the case of `COc1cc(S(=O)(=O)NCc2ccccn2)ccc1Cl`, the “hERG current change (%, negative = inhibition) at 1uM” value came to 10.7%. To `O=C(Cn1nnc(-c2ccc3c(c2)OCO3)n1)N1CCOCC1` belongs 13.6%; to `CC(C)(C)NC(=O)/C(=C/c1ccco1)c1ccccc1`, 6.71%; to `O=C(c1cccs1)N1CCN(Cc2ccccc2[N+](=O)[O-])CC1`, 4.37%. To `Cc1nc(-c2ccc(Br)cc2)ccc1C(=O)O` belongs 11.1%; to `O=C(NCCC1CCCCN1S(=O)(=O)c1ccc(Cl)cc1)C(=O)NCCN1CCOCC1` (stereo not shown), 13.5%. To `CCn1nc(C)c(CNC(=O)C2CCC(=O)N(Cc3ccc(Cl)cc3)C2)c1C` (stereo not shown) belongs 1.56%; to `CC1(c2ccccc2)NC(=O)N(CC(=O)Nc2ccc(S(N)(=O)=O)cc2)C1=O` (stereo not shown), 9.91%; to `CC(c1ccccc1)N(C)CC(=O)NC(=O)NCCC1=CCCCC1` (stereo not shown), 3.07%. With `O=C(COC(=O)c1c[nH]c2ccccc12)Nc1cccc(F)c1`, the “hERG current change (%, negative = inhibition) at 1uM” value worked out at 10.4%.

For `O=c1[nH]cnc2scc(C3COc4ccccc4O3)c12` (stereo not shown), the “hERG current change (%, negative = inhibition) at 1uM” value turned out to be 7.82%. To `Cc1ccc(Nc2nc(N)nc(CN3CCN(Cc4ccccc4)CC3)n2)cc1Cl` belongs -24.5%; to `COC(=O)c1cc(-c2cccc(OC)c2)n[nH]1`, 10.9%. Under `O=C(N[C@@H](Cc1c[nH]c2ccccc12)C(=O)O)c1ccc(Cl)cc1` stands 4.62%; under `c1ccc(COC2CCCN(Cc3nc(-c4cnccn4)no3)C2)cc1` (stereo not shown), 4.33%; under `CCN(CC)S(=O)(=O)c1cccc(C(=O)N/N=C(\C)c2ccc(O)cc2O)c1`, 11%. Take `OCC1CCCN(c2ncnc3scc(-c4ccccc4)c23)C1` (stereo not shown): the “hERG current change (%, negative = inhibition) at 1uM” value is given as 6.05%. Under `O=C(O)C1CCCCC1C(=O)Nc1ccc(S(=O)(=O)N2CCCCCC2)cc1` (stereo not shown) stands 14.4%. Under `Cc1occc1C(=O)N1N=C(C2CC2)CC1(O)C(F)(F)F` (stereo not shown) stands 11.9%.

Consider `CCCn1c(N2CCN(C(=O)Nc3ccccc3)CC2)nc2ccccc21`, for which the “hERG current change (%, negative = inhibition) at 1uM” value is -5.1%. Consider `COCCn1c(SCC(=O)N2CCN(c3ccccc3)CC2)nc2c(c1=O)SC(C)C2` (stereo not shown), for which the “hERG current change (%, negative = inhibition) at 1uM” value is -35.8%.

Turning to `NC(=O)COC(=O)c1ccccc1SCC(=O)NC1CCCCCCC1`, the “hERG current change (%, negative = inhibition) at 1uM” value is given as 15.9%. For the molecule `O=C(O)CCCCCCCCCCCc1ccccc1`, the “hERG current change (%, negative = inhibition) at 1uM” value turned out to be 12.7%.

Regarding `Cn1c(N)c(S(=O)(=O)NCc2ccc(F)cc2)c(=O)n(C)c1=O`, the “hERG current change (%, negative = inhibition) at 1uM” value came to 6.63%.

Regarding `CSc1nsc(SCC(=O)Nc2nncs2)n1`, the “hERG current change (%, negative = inhibition) at 1uM” value is given as 22.7%. On to `CCC(=O)N1CCc2cc(Br)cc(S(=O)(=O)NCc3ccccc3OC)c21`, for which the “hERG current change (%, negative = inhibition) at 1uM” value was 9.25%. Under `O=C(O)CSCCn1cccn1` stands -3.17%; under `CCn1c(=O)c(C)nn2c3ccccc3nc12`, -0.602%; under `O=C(NCc1ccco1)c1cccc(S(=O)(=O)N2CCCCC2)c1`, -3.52%. To `COc1ccccc1CCC(=O)Nc1ncc(C)s1` belongs 13.5%; to `O=C1Nc2ccccc2C12NCCc1c2[nH]c2ccccc12` (stereo not shown), 7.94%; to `O=[N+]([O-])c1ccc(NC(=S)NCc2ccc(F)cc2)cc1`, 9.98%. Under `COc1ccc(S(=O)(=O)N2CCN(C(c3ccccc3)c3ccccc3)CC2)cc1NC(C)=O` stands 17.6%; under `CCn1c(=S)sc2c(=O)[nH]c(SCC(=O)Nc3cc(OC)ccc3OC)nc21`, 9.89%.

For the molecule `O=C(O)COc1ccc(/C=N/NC(=O)Cc2ccc(Cl)cc2)cc1`, the “hERG current change (%, negative = inhibition) at 1uM” value amounted to 8.94%.

As to `CCOC(=O)C1CCN(c2ncnc3c2oc2ccccc23)CC1`, the “hERG current change (%, negative = inhibition) at 1uM” value is listed as 6.71%. Take `Cc1ccc(NC(=O)C2CCN(C(=O)c3ccco3)CC2)cc1C`: the “hERG current change (%, negative = inhibition) at 1uM” value turned out to be 9.85%. In the case of `COC(=O)c1ccc(OCC(O)CN(CCO)CC(O)Cn2ccc3ccccc32)cc1` (stereo not shown), the “hERG current change (%, negative = inhibition) at 1uM” value worked out at 10.6%. Under `O=C(O)CSc1c2c(nc3cc(C(=O)Nc4cccc(C(F)(F)F)c4)ccc13)CCC2` stands 10.4%; under `COC(=O)c1sc2ccccc2c1-n1cccc1C(=O)C(=O)Nc1ccc(C)cc1`, -2.29%; under `COc1ccc(C(=O)Nc2ccc(NC(=O)c3ccccc3OC)nc2)cc1`, 12.9%.

These data come from publication PMC4336329 (PLoS ONE, 2015).
